# Assay results taken from PubChem BioAssay AID1347165 (National Center for Advancing Translational Sciences (NCATS), 2019).
# Screen size: about 220,000 compounds; about 5,700 (2.6%) were called active. The inconclusive results got no clear call from the source; some entries with a clear call stand among them for comparison. The call rests on the fitted dose curve; in most records, active means well fitted inhibition curve with a large enough effect; inconclusive means small, poorly fitted or top-dose-only effect; inactive means no such curve, though single readings can be large or run the other way. A potency beside an inconclusive call is a rough fit, not a confirmed value.
# Biological target: Lysine-specific demethylase 5B (Homo sapiens) (UniProt Q9UGL1)
# Assay: Primary screen for KDM5B Histone Demethylases FDH-coupled qHTS; further: nearly all actives have a fitted effect of over 70% in size; on activity change, negative = inhibition: 0% is about no effect
# Conditions: FDH-coupled NADH fluorescence (FDH is formaldehyde dehydrogenase); activity change, negative = inhibition: at 57.7 µM (top of the series) unless noted
# Procedure, shortened: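 Compound dilutions met 200 nM (final) KDM5BΔAP for 10 min at room temperature before substrate addition. The substrate mix held 12.5 µM H3K4me3 with cofactors 25 µM α-ketoglutarate and 50 µM Fe²⁺. NADH signal gain over 30 min defined activity.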
# Potency means the concentration at half of the fitted maximal effect; tags describe the fitted curve by direction and shape.
# Chain of UniProt Q9UGL1 (Q9UGL1 whole entry, looked up): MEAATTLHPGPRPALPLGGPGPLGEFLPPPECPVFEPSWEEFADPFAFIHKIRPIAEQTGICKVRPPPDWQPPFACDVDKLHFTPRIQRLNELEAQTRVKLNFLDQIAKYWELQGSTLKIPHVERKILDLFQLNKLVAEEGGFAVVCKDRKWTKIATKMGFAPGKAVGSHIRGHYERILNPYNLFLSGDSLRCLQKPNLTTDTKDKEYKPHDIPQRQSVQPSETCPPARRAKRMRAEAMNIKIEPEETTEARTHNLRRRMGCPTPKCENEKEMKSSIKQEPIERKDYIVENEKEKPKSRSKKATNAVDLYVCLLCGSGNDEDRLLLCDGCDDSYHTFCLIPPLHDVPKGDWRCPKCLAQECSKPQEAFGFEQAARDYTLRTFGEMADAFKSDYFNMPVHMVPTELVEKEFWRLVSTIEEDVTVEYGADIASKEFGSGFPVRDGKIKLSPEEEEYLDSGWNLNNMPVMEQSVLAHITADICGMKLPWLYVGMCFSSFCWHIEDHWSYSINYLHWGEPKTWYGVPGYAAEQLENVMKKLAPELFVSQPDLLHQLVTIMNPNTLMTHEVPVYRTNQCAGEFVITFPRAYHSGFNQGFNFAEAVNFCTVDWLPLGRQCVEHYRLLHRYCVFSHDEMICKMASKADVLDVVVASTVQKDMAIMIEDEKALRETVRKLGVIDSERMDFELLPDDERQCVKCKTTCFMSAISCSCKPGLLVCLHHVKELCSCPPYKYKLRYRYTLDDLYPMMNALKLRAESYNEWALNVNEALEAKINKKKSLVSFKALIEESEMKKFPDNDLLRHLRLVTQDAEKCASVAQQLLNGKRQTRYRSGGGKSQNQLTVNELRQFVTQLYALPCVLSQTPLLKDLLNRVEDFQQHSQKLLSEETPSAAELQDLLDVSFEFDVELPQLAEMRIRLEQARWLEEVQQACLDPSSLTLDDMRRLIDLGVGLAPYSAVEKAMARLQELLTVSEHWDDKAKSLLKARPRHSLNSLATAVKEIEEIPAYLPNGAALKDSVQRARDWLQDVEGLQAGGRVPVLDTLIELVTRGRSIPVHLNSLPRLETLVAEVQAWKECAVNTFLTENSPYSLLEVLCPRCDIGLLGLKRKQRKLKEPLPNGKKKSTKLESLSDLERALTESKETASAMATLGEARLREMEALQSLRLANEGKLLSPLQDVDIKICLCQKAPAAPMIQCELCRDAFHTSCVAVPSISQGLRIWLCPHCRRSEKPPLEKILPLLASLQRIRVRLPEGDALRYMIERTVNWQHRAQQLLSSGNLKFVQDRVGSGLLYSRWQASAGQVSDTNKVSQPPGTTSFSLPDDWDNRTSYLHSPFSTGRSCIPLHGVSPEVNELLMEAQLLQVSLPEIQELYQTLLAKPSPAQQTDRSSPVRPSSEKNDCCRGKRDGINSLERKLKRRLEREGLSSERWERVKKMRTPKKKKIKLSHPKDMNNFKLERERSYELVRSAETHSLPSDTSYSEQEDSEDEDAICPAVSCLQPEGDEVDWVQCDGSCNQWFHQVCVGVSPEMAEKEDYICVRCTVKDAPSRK
Compound,Potency,"activity change, negative = inhibition"
COc1cc(NC(=O)CC(C)S(=O)(=O)c2ccc3c(c2)CCN3C(C)=O)cc(OC)c1OC (stereo not drawn),"inconclusive: 35.5 µM [inhibitor, single point]",
COc1ccc(-n2nc3n(c2=O)CCN(Cc2ccc(C#N)cc2)C3)cc1,"inconclusive: 56.2 µM [inhibitor, partial curve, poor fit]",
COc1ccc(Cl)cc1NC(=O)c1cnc(SC)nc1-c1ccccc1,"inconclusive: 44.7 µM [inhibitor, single point]",
NS(=O)(=O)c1ccc(N=Nc2ccc(=O)[nH]c2O)cc1,"inconclusive: 39.8 µM [inhibitor, single point]",
CNC(=O)CC1C(=O)NCCN1CC(=O)Nc1cc(OC)cc(OC)c1 (stereo not drawn),"inconclusive: 11.2 µM [inhibitor, partial curve]",
CCN1c2cc(C(=O)Nc3ccc(Cl)c(Cl)c3)ccc2C(=O)N2CCCCCC21 (stereo not drawn),inactive,
CCCCN(CC)CCNC(=O)CCn1cnc2onc(-c3ccc(F)cc3)c2c1=O,,inconclusive: -38.4% [inhibitor]
CCn1c(/C=C/c2ccccc2Cl)nc2ccccc2c1=O,"inconclusive: 39.8 µM [inhibitor, single point]",
CCOCCn1c(=O)[nH]c2cc(C(=O)NCCn3cnnc3)ccc21,"inconclusive: 12.6 µM [inhibitor, partial curve]",
CCOc1cc(C2CC(=O)Nc3c(-c4ccc(OC)cc4)csc32)ccc1OCC(N)=O (stereo not drawn),inactive,
CCOC(=O)c1c(-c2ccccc2)oc2cc(Br)c(O)cc12,"inconclusive: 17.8 µM [inhibitor, partial curve, poor fit]",
CCC1CCCCN1Cc1nc2c(c(=O)n(C)c(=O)n2C)n1CCN1CCOCC1 (stereo not drawn),inactive,
CC(C)c1nc2cc(NC(=O)Cn3cnc4ccccc4c3=O)ccc2o1,inactive,
CCc1nc2c(c(-c3ccc(Cl)cc3)n1)CN(CC1CC1)CC2,"inconclusive: 17.8 µM [inhibitor, partial curve, poor fit]",
CCCOc1ccc(-c2ccc(C(=O)O)cc2)cc1,"inconclusive: 22.4 µM [inhibitor, partial curve, poor fit]",
Fc1ccc(-n2ncc3c(NCCCn4ccnc4)ncnc32)cc1,"inconclusive: 25.1 µM [inhibitor, partial curve, poor fit]",
CC(C)NC(=O)N1CCCCC1c1nnc2n1CCNC2 (stereo not drawn),"inconclusive: 50.1 µM [inhibitor, partial curve]",
c1ccc(Nc2nc(CSc3nnnn3C3CCCC3)cs2)cc1,"inconclusive: 39.8 µM [inhibitor, single point]",
COc1ccc2c(C)c(CCC(=O)NCc3ccccc3)c(=O)oc2c1,"inconclusive: 22.4 µM [inhibitor, partial curve, poor fit]",
COc1ccc(NC(=O)c2c(C)nc3n2CCC(Nc2ccccc2)C3)cn1 (stereo not drawn),"inconclusive: 31.6 µM [inhibitor, partial curve]",
Cc1ccc(C(C)NC(=O)c2ccc(Br)s2)cc1 (stereo not drawn),inactive,
COc1cccc(-c2cc3c(=O)n(CCNC(=O)C4CCCCC4)ccn3n2)c1,inactive,
Cc1ccc(C(CC(=O)O)NC(=O)c2ccccc2C(F)(F)F)cc1 (stereo not drawn),inactive,

Compound,Potency,"activity change, negative = inhibition"
CCOC(=O)c1[nH]c(C)c(C=O)c1C,inactive,
CCCC(=O)N1CCN(c2nc(C)c3c(c2C#N)CCCC3)CC1,"inconclusive: 22.4 µM [inhibitor, partial curve, poor fit]",
C#CCOc1ccccc1CN1CCN(c2ncc(F)cn2)CC1,active: 28.2 µM,
COc1ccc(OC)c(CCNC(=O)CCc2cn(Cc3cc(C)ccc3C)c3ccccc23)c1,"inconclusive: 28.2 µM [inhibitor, partial curve, poor fit]",
Cn1nccc1C(=O)N1CCCN(S(C)(=O)=O)c2ccccc21,inactive,
CCOc1ccccc1CN1CCC2(CCN(Cc3cncs3)CC2)Oc2ccccc21,"inconclusive: 28.2 µM [inhibitor, partial curve, poor fit]",
O=C(NC1CCN(c2cc(-c3cccs3)[nH]n2)C1)c1ccccn1 (stereo not drawn),"inconclusive: 22.4 µM [inhibitor, single point]",
N#Cc1ccc(-c2ccc3c(c2)OCO3)nc1SCC(=O)Nc1ccccc1Cl,"inconclusive: 12.6 µM [inhibitor, partial curve, poor fit]",
CCCCOc1ccc(C(=O)NCCc2csc(-c3cccc(F)c3)n2)cc1,"inconclusive: 17.8 µM [inhibitor, partial curve, poor fit]",
COc1ccc(CN2CCc3oc(C)c(C(=O)N4CCCCCC4)c3C2)cc1,"inconclusive: 28.2 µM [inhibitor, partial curve]",
Cc1ccc(NC(=O)Cn2ccn3nc(-c4ccc(F)cc4)c(CO)c3c2=O)cc1Cl,"inconclusive: 39.8 µM [inhibitor, single point]",
O=C1NCCCCCCN(Cc2ccncc2)[C@@H]2CN(Cc3cccnc3)CC[C@@H]12,"inconclusive: 25.1 µM [inhibitor, single point]",
COc1ccc(-c2cc(C(=O)NC3CC3)c3c(C4CCNCC4)noc3n2)cc1,"inconclusive: 56.2 µM [inhibitor, partial curve, poor fit]",
O=C(NCc1cccnc1)c1ccc2nc(-c3ccccc3)c(-c3ccccc3)nc2c1,"inconclusive: 10 µM [inhibitor, partial curve, poor fit]",
O=C(O)c1ccc2c(c1)n(Cc1ccccc1)c(=O)c1ccnn12,active: 28.2 µM,
CCN1Cc2nnn(Cc3ccccc3)c2-c2cc(N3CCCC3)ccc2S1(=O)=O,"inconclusive: 1.78 µM [inhibitor, partial curve, poor fit]",
CCn1ncc(N2CCCC(CC(=O)Nc3ccccc3OC)C2)cc1=O (stereo not drawn),inactive,
Cc1n[nH]c(C)c1Cc1ccc(C(=O)N2CCc3c(nc4cc(-c5ccccc5)[nH]n4c3=O)C2)o1,"inconclusive: 31.6 µM [inhibitor, partial curve, poor fit]",
CCCOc1ccc2c(-c3ccccc3)cc(=O)oc2c1,"inconclusive: 39.8 µM [inhibitor, single point]",
CCCc1nnc(NC(=O)c2cc(-c3ccncc3)nc3ccccc23)s1,inactive,
CCc1nc2cc(N3CCC(C(=O)O)CC3)cnc2nc1CC,"inconclusive: 14.1 µM [inhibitor, partial curve]",
Cc1cccc(C(=O)Nc2ccc(-c3nc4ncccc4o3)cc2C)c1,"inconclusive: 17.8 µM [inhibitor, partial curve, poor fit]",
CCN(CC)S(=O)(=O)c1cccc(NC(=O)COC(=O)c2nn(C)c(=O)c3ccccc23)c1,inactive,

Compound,Potency,"activity change, negative = inhibition"
CCn1nc(C(=O)OCc2cc(=O)oc3cc(O)ccc23)c2ccccc2c1=O,inactive,
Cc1ccc(CNC(=O)c2ccc3c(c2)c(C)c(C)n3Cc2ccccc2)o1,"inconclusive: 5.01 µM [inhibitor, partial curve, poor fit]",
N#CCc1cc2ccc3cccc4ccc(c1)c2c34,"inconclusive: 25.1 µM [inhibitor, partial curve, poor fit]",
CC(C)(C)c1ccc(CN(Cc2ccccc2)C(=S)Nc2ccc(Br)cc2)cc1,inactive,
O=C(NCC1CN(Cc2ccncc2)CC12CN(c1ccccc1)C2)Nc1ccccc1 (stereo not drawn),"inconclusive: 39.8 µM [inhibitor, partial curve, poor fit]",
CCCCCNC(=O)c1cc(-c2ccc(OC)cc2)nc2ccccc12,"inconclusive: 25.1 µM [inhibitor, partial curve, poor fit]",
Nc1nnnn1NCc1c(OCc2ccc(Cl)cc2Cl)ccc2ccccc12,"inconclusive: 39.8 µM [inhibitor, single point]",
CCOC(=O)CNC(=O)C1(C)CCC(=O)N1Cc1ccccc1Cl (stereo not drawn),inactive,
COc1cc(-c2nn3c(C(C)(C)C)nnc3s2)cc(OC)c1OC,"inconclusive: 31.6 µM [inhibitor, single point]",
O=C(CCc1cccnc1)Nc1ccc(Cl)cc1F,inactive,
CCCCc1cc(=O)oc2cc(OC(C)C(=O)NCc3cccnc3)c(Cl)cc12 (stereo not drawn),"inconclusive: 39.8 µM [inhibitor, partial curve, poor fit]",
CCN1CCN(CCOc2ccc3c(C)c(-c4ccc(OC)c(OC)c4)c(=O)oc3c2)CC1,inactive,
CCOC(=O)CSC1=Nc2ccccc2C2=NC(CCC(=O)NCc3ccc(F)cc3)C(=O)N12 (stereo not drawn),"inconclusive: 28.2 µM [inhibitor, partial curve, poor fit]",
O=C(NCc1cccc(F)c1)C1CCCN(C(=O)N2CCOc3ccccc32)C1 (stereo not drawn),inactive,
Cc1ccc(-c2nc(Cn3cccc(C(F)(F)F)c3=O)co2)cc1,inactive,
CCc1ccc(-c2cc(C)no2)cc1S(=O)(=O)Nc1cc(Cl)ccc1OC,inactive,
CCN1c2cc(C(=O)Nc3ccc(-n4ccnc4)cc3)ccc2C(=O)N2CCCCCC21 (stereo not drawn),"inconclusive: 22.4 µM [inhibitor, partial curve, poor fit]",
COc1cccc(C(=O)NCCc2csc(-c3ccc(Cl)cc3)n2)c1,"inconclusive: 35.5 µM [inhibitor, single point]",
O=C(Nc1cccnc1)c1nc2c(o1)CCN(Cc1ccc(F)cc1F)CC2,inactive,
COc1ccc(CN(C)C(=O)NCc2nc(C)cs2)cc1,inactive,
Cc1ccc(NC(=O)C2CCN(S(=O)(=O)c3ccc4[nH]c5c(c4c3)CCCCC5)CC2)cc1,"inconclusive: 25.1 µM [inhibitor, partial curve, poor fit]",
COc1ccc(NC(=O)Cn2ccc3ccc(Cl)cc32)c(OC)c1,inactive,
